According to PubChem BioAssay AID686971 (National Center for Advancing Translational Sciences (NCATS), 2013):
The campaign covered roughly 360,000 compounds. About 7,500 (2.1%) were called active. Inconclusive means that the source gave no clear call. Such entries were picked first, then a sample of the others. Calls follow the shape of the dose curve; as a rule, active = well fitted cell-killing curve with a large enough effect; inconclusive = small, poorly fitted or top-dose-only effect, or effect the other way, or another doubt; inactive = no such curve, though single readings can be large or run the other way. Potencies of inconclusive entries are left out as doubtful fits.

Test: qHTS for induction of synthetic lethality in tumor cells producing 2HG: qHTS for the HT-1080-IDH1KD cell line;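 as to activity, negative = toxicity: 0% = DMSO wells and -100% = cell-free medium wells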
Details: HT-1080 IDH1 knockdown viability, ATP luminescence, 48 h; activity, negative = toxicity: at 46.1 µM (top of the series) unless noted
Method in brief: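 In this qHTS, HT-1080 cells depleted of IDH1 are exposed for 48 h at 37 °C to compound titrations. Toxicity is scored from CellTiter-Glo luminescence, with DMSO as full viability and medium alone as none.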
Potency is read from the fitted curve at half-maximal effect; tags tell the direction and shape of the fitted curve.

| Structure (SMILES) | Potency | activity, negative = toxicity |
| --- | --- | --- |
| Cc1ccc(/C=C/C(=O)c2ccc([N+](=O)[O-])o2)cc1 | active: 3.66 µM |  |
| N/C(=N\OC(=O)c1cc(Cl)ccc1Cl)c1cccnc1 | inconclusive [cytotoxic, single point] |  |
| CCC(=O)NC(c1ccc(Cl)cc1Cl)c1ccc2cccnc2c1O (stereo not drawn) | inconclusive [cytotoxic, partial curve] |  |
| Clc1ccc(OCCn2cnc3ccccc32)c(Cl)c1 | inconclusive [cytotoxic, single point] |  |
| O=[N+]([O-])c1nn(-c2ccc3c(c2)OCCO3)n(O)c1=NC1CCCCCC1 | inconclusive [cytotoxic, single point] |  |
| N=C1SCC(=O)N1c1ncc(Cc2ccc(F)cc2)s1 | active: 16.4 µM |  |
| COc1cc(CNCC(O)c2ccccc2)ccc1OCc1ccc(Cl)nc1 (stereo not drawn) | inconclusive [cytotoxic, single point] |  |
| COc1ccc(CN(C)C(C)C(=O)NC2CCCc3ccccc32)cc1 (stereo not drawn) | inconclusive [cytotoxic, single point] |  |
| Cc1cccc(NC(=O)/C=C/c2ccc([N+](=O)[O-])s2)c1 | active: 4.11 µM |  |
| Cc1ccc(CN(Cc2ccco2)C(=O)c2ccco2)cc1 |  | inactive: -1.49% |
| COc1ccccc1-n1c2nc3ccccc3nc2c2c(=O)n(-c3cc(C)cc(C)c3)cnc21 |  | inactive: -1.12% |
| CCCc1ccc(-c2cc(C(=O)NN3CCOCC3)c3ccccc3n2)cc1 | inconclusive [cytotoxic, single point] |  |
| CCCn1c(N)c(C(=O)COC(=O)/C=C/c2ccc(OC(F)F)c(OC)c2)c(=O)[nH]c1=O | inconclusive [cytotoxic, single point] |  |
| O=C(COC(=O)c1ccccc1Nc1ccc(SC(F)F)cc1)NCc1ccco1 | inconclusive [cytotoxic, partial curve] |  |
| Cc1ccc(/C=C2/SC(=S)N(c3ccc(S(=O)(=O)Nc4nccs4)cc3)C2=O)cc1 | inconclusive [cytotoxic, single point] |  |
| O=C(/C=C/c1ccccc1)c1ccc2c3c(cccc13)CC2 | inconclusive [cytotoxic, single point] |  |
| Cc1ccc(S(=O)(=O)C2(C(=O)N3CCN(c4ccccc4F)CC3)CC2)cc1 |  | inactive: 15.7% |
| Cc1ccc(-c2ncccc2OC(=O)C23CC4CC(CC(C4)C2)C3)cc1 | inconclusive [cytotoxic, single point] |  |
| Clc1ccc(C(c2cccs2)N2CCNCC2)cc1 (stereo not drawn) | inconclusive [cytotoxic, single point] |  |
| CCNC(=O)C1CCCc2c1[nH]c1ccc(Cl)cc21 (stereo not drawn) |  | inactive: -25.7% |
| COC(=O)c1cccc(NC(=O)c2ccc(OC)c(Cl)c2)c1 | inconclusive [rising, full curve, poor fit] |  |
| COc1ccc(Cn2c(C3CCCCC3)nc3c(c(=O)c4ccccc4n3C)c2=O)cc1 |  | inactive: 5.72% |
| O=C(Nc1cccc(Cl)c1)C1=Cc2cc(Cl)ccc2OC1 | inconclusive [cytotoxic, single point] |  |
| O=C(NCc1nnc(SCc2ccc(F)cc2)n1-c1ccc(F)cc1)C12CC3CC(CC(C3)C1)C2 | inconclusive [cytotoxic, single point] |  |
| O=C(NC1CCCCC1)c1ccc(-c2cn[nH]c2)c2ccoc12 |  | inactive: -17.2% |

| Structure (SMILES) | Potency | activity, negative = toxicity |
| --- | --- | --- |
| COc1cccc(NS(=O)(=O)c2ccc3[nH]cc(C(=O)N(C)Cc4ccco4)c(=O)c3c2)c1 | inconclusive [rising, full curve, poor fit] |  |
| Cc1cccc(NC(=O)/C(C#N)=C/c2cccc([N+](=O)[O-])c2)n1 |  | inactive: 2.91% |
| C#Cc1ccc(NC(=O)C2(C)CCN2C(=O)C2(c3ccccc3)CCCC2)cc1 (stereo not drawn) | inconclusive [cytotoxic, single point] |  |
| O=[N+]([O-])/C=C\c1ccc(N2CCOCC2)cc1 | active: 14.6 µM |  |
| O=C(C1CCCCC1)N1C[C@H](n2cc(-c3ccc(F)cc3)nn2)[C@@H](O)C[C@@H]1c1ccc(Cl)cc1 | inconclusive [cytotoxic, single point] |  |
| FC(F)C(F)(F)Oc1cccc(Nc2nccn3c(-c4cccc5ccccc45)cnc23)c1 | inconclusive [cytotoxic, single point] |  |
| COc1ccc(/C=N/NC(=O)CCSc2nc3ccccc3s2)cc1 | inconclusive [cytotoxic, single point] |  |
| COc1ccc(-c2cc(NC=O)c3ncc(-c4cccc(C(=O)NCCN(C)C)c4)n3c2)c(OC)c1 | active: 23.1 µM |  |
| CC(C)OCCCNc1ncnc2c1cnn2-c1ccccc1 |  | inactive: 14.2% |
| CC(C)(C)C(=O)C(C(c1ccccc1)N1CCOCC1)N1CCOCC1 (stereo not drawn) |  | inactive: 8.33% |
| Cc1ccc(OCCC(=O)Nc2ccccc2C(=O)NC2CC2)cc1 |  | inactive: -4.39% |
| COc1cccc2cc(C(=O)NCc3ccco3)c(=O)oc12 | inconclusive [rising, partial curve] |  |
| Cc1ccc2nc(-c3ccc(C#N)cc3)c(Cc3ccccn3)n2c1 | inconclusive [cytotoxic, single point] |  |
| CCCc1ccc2oc(C(=O)NCCc3nc(C(=O)OCC)cs3)c(C)c2c1 |  | inactive: -15.3% |
| O=C(CSc1nnnn1Cc1ccccc1)c1ccccc1F |  | inactive: 0.451% |
| CC(C)(C)c1ccc(C(=O)NC(=O)COC(=O)c2ccc(Br)o2)cc1 |  | inactive: -0.0137% |
| CCn1nccc1C(=O)Nc1ccccc1OC |  | inactive: 7.1% |
| O=C(COc1ccc([N+](=O)[O-])cc1)N/N=C/c1cc([N+](=O)[O-])ccc1N1CCOCC1 |  | inactive: -0.929% |
| O=C(c1ccc(Cl)c([N+](=O)[O-])c1)N(Cc1ccc(Cl)cc1)C1CCS(=O)(=O)C1 (stereo not drawn) | inconclusive [cytotoxic, single point] |  |
| CCOC(=O)c1ccc(NC(=S)Nc2ccccc2)cc1 | inconclusive [cytotoxic, full curve] |  |
| COc1ccc(NS(=O)(=O)c2cc(-c3cnc(C4CC4)o3)ccc2C)cc1 | active: 20.6 µM |  |
| CC(=O)c1c(C)[nH]c(C(=O)OCc2ccc(Br)cc2)c1C | inconclusive [cytotoxic, partial curve] |  |
| Cc1nc(-c2cccs2)sc1C(=O)NN | inconclusive [cytotoxic, single point] |  |
| O=[N+]([O-])c1ccc(S(=O)(=O)c2ccccc2)nc1 | active: 5.8 µM |  |
| CCOc1ccc2[nH]c(=O)c(CN(CCN3CCCC3)C(=S)Nc3ccccc3OCC)cc2c1 | inconclusive [cytotoxic, single point] |  |

| Structure (SMILES) | Potency | activity, negative = toxicity |
| --- | --- | --- |
| Cc1ccc(S(=O)(=O)c2nnn3c2nc(N2CCC(C(N)=O)CC2)c2ccccc23)cc1C | inconclusive [cytotoxic, single point] |  |
| Cc1ccc(C(C)C)cc1OCC(=O)Nc1nnc(C2CC2)s1 |  | inconclusive: -12.7% [cytotoxic] |
| Oc1[nH]c2ccccc2c1N=Nc1cccc(Cl)c1 |  | inactive: 3.85% |
| CC(=O)Nc1nc(C)c(-c2csc(Nc3cccc([N+](=O)[O-])c3)n2)s1 | inconclusive [cytotoxic, single point] |  |
| CCOC(=O)Cc1csc(N/N=C/c2cccc([N+](=O)[O-])c2)n1 |  | inactive: 9.3% |
| Cc1ccc(NC(=O)c2nc[nH]c2C(=O)N[C@@H](CCCCNC(=O)OC(C)(C)C)C(=O)OC(C)(C)C)cc1 | inconclusive [cytotoxic, single point] |  |
| CC(=O)c1ccc(N2CCN(S(=O)(=O)c3ccc(-c4cnc(C5CC5)o4)cc3)CC2)cc1 | active: 20.6 µM |  |
| COCc1nnc(NC(=O)COc2ccc3c(c2)OCO3)s1 | inconclusive [cytotoxic, partial curve] |  |
| COC(=O)c1ccc(/C=C/C(=O)c2ccc(OC)cc2)cc1 | inconclusive [cytotoxic, single point] |  |
| CCOc1ccc(N(CC(=O)Nc2ccc(C)c(F)c2)C2=NC3CS(=O)(=O)CC3S2)cc1 (stereo not drawn) | inconclusive [rising, single point] |  |
| CC(=O)c1ccc(OC(=O)Oc2ccc(C(C)=O)cc2)cc1 |  | inactive: -0.308% |
| COc1ccc(-c2coc3c(C(=O)NCc4ccc(F)c(F)c4)cccc23)c(C)c1 | active: 13 µM |  |
| C[C@@H]1CN([C@H](C)CO)C(=O)c2cc(Br)cnc2O[C@@H]1CN(C)Cc1cncnc1 |  | inactive: -1.69% |
| O=S1(=O)CC(N2CCSCC2)CN1Cc1cn(Cc2ccccc2)nn1 (stereo not drawn) |  | inactive: 2.14% |
| CN=C1N(C)C[C@@H]2[C@@H]3C(=O)N(C)C(=O)[C@@H]3[C@](C)(C(=O)OC)N12 |  | inactive: 3.4% |
| COC(=O)c1ccc(OCC(O)CN2CCc3cc(OC)c(OC)cc3C2c2ccccc2)cc1 (stereo not drawn) | active: 16.4 µM |  |
| O=c1[nH]c(CCl)nc2cc(-c3ccc(F)cc3)sc12 | active: 7.31 µM |  |
| Cc1cc(C)cc(C(=O)NCCCN2CCOCC2)c1 | inconclusive [rising, partial curve] |  |
| Cn1ncc2c(Nc3ccc(Cl)cc3)ncnc21 |  | inactive: 4.15% |
| CCCOc1ccc(F)cc1-c1cc(C(=O)NCc2cccc(Cl)c2)[nH]n1 | inconclusive [cytotoxic, single point] |  |
| Cc1ccc(OC(F)F)c(NC(=O)Nc2cccc(C(F)(F)F)c2)c1 | inconclusive [cytotoxic, single point] |  |
| COc1cc2c(cc1OC)C(C)N(S(=O)(=O)c1cnc(Cl)c(Cl)c1)CC2 (stereo not drawn) | inconclusive [cytotoxic, single point] |  |
| N#CC1(C#N)CC(C=O)=C(N)C1(C#N)CC(=O)C12CC3CC(CC(C3)C1)C2 (stereo not drawn) | inconclusive [cytotoxic, single point] |  |
